From PubChem BioAssay AID1460 (National Center for Advancing Translational Sciences (NCATS), 2008)
Hit rate of the full screen: of about 270,000 compounds, about 5,800 (2.1%) were called active. This list was built around the results that the source calls inconclusive (neither active nor inactive); the mix of calls is not that of the screen. Calls come from the whole dose curve; as a rule, active = well fitted inhibition curve with a large enough effect; inconclusive = small, poorly fitted or top-dose-only effect; inactive = flat fitted curve, though single readings scatter. Potencies of inconclusive entries are doubtful fits and often do not repeat.

target: Microtubule-associated protein tau (Homo sapiens) (UniProt P10636); assay: qHTS for Inhibitors of Tau Fibril Formation, Thioflavin T Binding; conditions: recombinant tau K18 P301L (four-repeat tau fragment), heparin-induced fibrillization, ThT fluorescence; series mostly up to 57.4 µM; note: nearly all actives have a fitted effect of over 55% in size
Sequence of UniProt P10636 (P10636 whole entry, looked up, the tested form may be a part): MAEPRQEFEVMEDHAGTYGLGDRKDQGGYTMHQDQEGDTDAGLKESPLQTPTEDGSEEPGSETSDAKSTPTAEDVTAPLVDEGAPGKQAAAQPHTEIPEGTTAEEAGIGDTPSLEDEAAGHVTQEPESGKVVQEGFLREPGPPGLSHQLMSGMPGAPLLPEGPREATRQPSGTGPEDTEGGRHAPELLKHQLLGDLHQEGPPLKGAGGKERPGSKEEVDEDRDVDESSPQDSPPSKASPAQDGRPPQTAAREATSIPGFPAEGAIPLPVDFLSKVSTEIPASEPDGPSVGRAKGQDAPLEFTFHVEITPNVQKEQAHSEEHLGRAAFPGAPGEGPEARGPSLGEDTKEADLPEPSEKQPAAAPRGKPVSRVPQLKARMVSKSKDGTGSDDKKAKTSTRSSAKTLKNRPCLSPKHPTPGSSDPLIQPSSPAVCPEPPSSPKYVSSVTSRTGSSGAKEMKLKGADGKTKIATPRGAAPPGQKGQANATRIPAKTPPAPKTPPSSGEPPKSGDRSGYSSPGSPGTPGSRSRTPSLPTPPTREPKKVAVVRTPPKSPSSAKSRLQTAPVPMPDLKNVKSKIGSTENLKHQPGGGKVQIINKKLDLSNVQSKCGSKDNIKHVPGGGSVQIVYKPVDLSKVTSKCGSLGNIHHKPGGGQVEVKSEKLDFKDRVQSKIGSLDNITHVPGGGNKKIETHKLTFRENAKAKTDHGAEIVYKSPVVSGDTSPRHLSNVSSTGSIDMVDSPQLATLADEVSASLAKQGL
Procedure, shortened: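 Heparin-induced (20 uM) aggregation of recombinant human K18 P301L tau, 15 uM unlabeled with 0.24 uM labeled, pH 7 acetate buffer, 6 hr at 37 C with compound. Fibrils quantified by 30 uM ThT fluorescence after 1 hr ambient incubation.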
Potency is the fitted concentration of half-maximal effect; tags give direction and shape of the fitted curve.

| Compound | Potency |
| --- | --- |
| COc1ccc(NC(=O)C(=S)NC2CCCCC2)cc1 | inconclusive: 28.2 µM [inhibitor, partial curve] |
| NC(C(=O)N[C@@H]1C(=O)N2C(C(=O)O)=C(Cl)CS[C@H]12)c1ccccc1 (stereo partly specified) | active: 28.2 µM |
| CCOC(=O)c1c(N)sc2c1CCN(Cc1ccccc1)C2 | inconclusive: 20 µM [inhibitor, partial curve] |
| CC(=O)n1cc([C@H]2C=C(C(=O)Nc3ccccc3)O[C@@H](OCCCCO)C2)c2ccccc21 | inconclusive: 0.1 µM [inhibitor, single point] |
| Cc1ccc(C)c2[nH]c(=O)c(CN(Cc3ccco3)C(=S)NCC3CCCO3)cc12 (stereo unspecified) | inconclusive: 31.6 µM [inhibitor, partial curve] |
| COc1ccc2c(-c3ccccc3)cc(SCC(=O)N(C)C3CCS(=O)(=O)C3)nc2c1 (stereo unspecified) | inconclusive: 12.6 µM [inhibitor, partial curve] |
| O=C(Nc1nc(-c2ccc(Cl)s2)cs1)c1ccco1 | inconclusive: 15.8 µM [inhibitor, partial curve] |
| O=C1CCC(=O)N1c1ccc(NCCc2ccccc2F)c([N+](=O)[O-])c1 | inconclusive: 10 µM [inhibitor, partial curve] |
| Cc1oc(-c2cccc(Cl)c2)nc1CSCC(=O)O | inactive |
| CCN(C(=O)c1cc2c(Cl)nc3ccc(C)cc3c2s1)c1cc(OC)ccc1OC | inactive |
| COc1ccc(C(Cl)=C(c2ccc(OC)cc2)c2ccc(OC)cc2)cc1 | inactive |
| COc1ccccc1NC(=S)NNC(=O)c1nn(C)c(C)c1Cl | inconclusive: 0.562 µM [inhibitor, full curve, poor fit] |
| CCCCC(=O)Nc1ccc(OCc2cc(=O)n3ccc(C)cc3n2)cc1 | inactive |
| CCCOC(=O)c1cccc(NC(=O)c2cccnc2)c1 | inactive |
| O=c1[nH]c2cc(C(F)(F)F)c(N3CCOCC3)cc2n(CP(=O)(O)O)c1=O | inactive |
| Cc1nnc(NC(=O)C2CCN(S(=O)(=O)c3ccc(Cl)cc3)CC2)s1 | inactive |
| CCCc1cc(=O)oc2cc(C)c3c(-c4ccccc4)c(C)oc3c12 | inconclusive: 14.1 µM [inhibitor, partial curve] |
| CCOc1ccccc1NC(=O)CN1C(=O)C(=O)c2ccccc21 | inconclusive: 14.1 µM [inhibitor, single point] |
| CC(/C=N\N1CCN(c2ccc(Cl)cc2)CC1)=C\c1ccccc1 | inconclusive: 0.794 µM [inhibitor, full curve, poor fit] |
| Cn1c2ccc(F)cc2c2nnc(SCCN3CCCCC3)nc21 | inactive |
| CCOc1ccccc1N(CC)C(=O)c1cc2ccc3cccnc3c2[nH]1 | inconclusive: 12.6 µM [inhibitor, partial curve, poor fit] |
| O=C(NCCCN1CCN(c2cccc(Cl)c2)CC1)c1nnc(Cc2ccc(F)cc2Cl)o1 | inconclusive: 35.5 µM [inhibitor, single point] |
| Cc1ccc2nc(NC(=O)CSc3ncc(C(=O)Nc4ccccc4)c(=O)n3C)sc2c1 | inconclusive: 15.8 µM [inhibitor, partial curve, poor fit] |

| Compound | Potency |
| --- | --- |
| CCc1ccc(S(=O)(=O)c2cnc(SCC(=O)Nc3ccc(OC)cc3OC)[nH]c2=O)cc1 | inconclusive: 17.8 µM [inhibitor, single point] |
| CCOc1ccc(-c2csc(/C(C#N)=C\c3ccc(O)c([N+](=O)[O-])c3)n2)cc1 | active: 1.26 µM |
| O=C(c1cnn(C(=O)c2cccc(S(=O)(=O)N3CCOCC3)c2)c1)c1ccccc1O | inactive |
| CCC(C)c1ccc(OCC(=O)Nc2ccc(Cl)cn2)cc1 (stereo unspecified) | inconclusive: 2.24 µM [inhibitor, full curve] |
| COc1ccc(C(=S)N2CCN(c3cccc(Cl)c3)CC2)c(OC)c1 | inactive |
| COc1ccc(NC(=S)NC(NC(=O)c2cccc3ccccc23)C(Cl)(Cl)Cl)c([N+](=O)[O-])c1 (stereo unspecified) | inconclusive: 3.98 µM [inhibitor, full curve] |
| COc1cccc(-c2nc(-c3ccccn3)no2)c1OC | inconclusive: 39.8 µM [inhibitor, single point] |
| Cc1nn2c(=O)cc(COC(=O)COc3ccccc3C)nc2s1 | inactive |
| COC(=O)C(O)(CC(=O)Nc1cc(Cl)ccc1Cl)C(F)(F)F (stereo unspecified) | inactive |
| O=C(C1CCCCC1)N1CCN=C1SCc1cccc([N+](=O)[O-])c1 | inconclusive: 39.8 µM [inhibitor, single point] |
| CCOC(=O)c1sc2nc3c(cc2c1N)COC(C)(CC)C3 (stereo unspecified) | inconclusive: 12.6 µM [inhibitor, partial curve] |
| O=C(Nc1ccc2nc(-c3ccco3)c(-c3ccco3)nc2c1)NC1CC1 | active: 7.08 µM |
| COc1ccc(NC(=O)c2nc(S(=O)(=O)Cc3ccc(C)cc3)ncc2Cl)cc1 | inconclusive: 8.91 µM [inhibitor, partial curve] |
| CC1CCC(NC(=O)CCc2cn(Cc3ccc(F)cc3)c3ccccc23)CC1 (stereo unspecified) | inactive |
| CCC1C2CN(C(C)=O)CC=C2C(C#N)=C(N)C1(C#N)C#N (stereo unspecified) | inconclusive: 39.8 µM [inhibitor, single point] |
| N#C/C(=N\Nc1cccc(Cl)c1)C(=O)c1ccccc1 | active: 10 µM |
| COc1ccccc1-c1nc(C#N)c(N2CCc3ccccc3C2)o1 | inactive |
| CC(/C=C1\SC(=S)N(CCCC(=O)Nc2ccc(C(=O)O)cc2)C1=O)=C\c1ccccc1 | active: 14.1 µM |
| C=C1c2cccc(OC)c2O[C@H](C(=O)OCC)[C@@H]1CC(CC)CCCC (stereo partly specified) | inactive |
| Cc1sc2c(c1C)c(=O)n(Cc1ccccc1)c(=O)n2CC(=O)Nc1cccc(Cl)c1 | inconclusive: 39.8 µM [activator, single point] |
| CCc1cccc(CC)c1NC(=O)CSc1nc2ccc(N3C(=O)C4C5C=CC(C5)C4C3=O)cc2s1 (stereo unspecified) | inconclusive: 3.98 µM [inhibitor, full curve] |
| CC(=O)Nc1cccc(-c2csc(Nc3ccc(C)cn3)n2)c1 | inconclusive: 11.2 µM [inhibitor, partial curve] |
| CN(C1=NS(=O)(=O)c2ccccc21)c1ccc(OC(=O)c2ccncc2)cc1 | inconclusive: 10 µM [inhibitor, partial curve] |
